“And” between values parts separate entries of the source, which are not always exact repeats. Identical values can stand only once. The whole screen tested about 270,000 compounds, of which about 5,800 (2.1%) were called active. Inconclusive results, whose numbers are uncertain, are shown with a selection of clear calls. Calls follow the shape of the dose curve; as a rule, active = well fitted inhibition curve with a large enough effect; inconclusive = small, poorly fitted or top-dose-only effect; inactive = flat fitted curve, though single readings scatter. Where the call is inconclusive, the potency comes from a doubtful curve fit.
These compounds were tested against Microtubule-associated protein tau (Homo sapiens) (UniProt P10636) (assay: qHTS for Inhibitors of Tau Fibril Formation, Thioflavin T Binding). Details: recombinant tau K18 P301L (four-repeat tau fragment), heparin-induced fibrillization, ThT fluorescence; series mostly up to 57.4 µM; activity, negative = inhibition: at the top concentration.
UniProt P10636, sequence (P10636 whole entry, looked up, the tested form may be a part): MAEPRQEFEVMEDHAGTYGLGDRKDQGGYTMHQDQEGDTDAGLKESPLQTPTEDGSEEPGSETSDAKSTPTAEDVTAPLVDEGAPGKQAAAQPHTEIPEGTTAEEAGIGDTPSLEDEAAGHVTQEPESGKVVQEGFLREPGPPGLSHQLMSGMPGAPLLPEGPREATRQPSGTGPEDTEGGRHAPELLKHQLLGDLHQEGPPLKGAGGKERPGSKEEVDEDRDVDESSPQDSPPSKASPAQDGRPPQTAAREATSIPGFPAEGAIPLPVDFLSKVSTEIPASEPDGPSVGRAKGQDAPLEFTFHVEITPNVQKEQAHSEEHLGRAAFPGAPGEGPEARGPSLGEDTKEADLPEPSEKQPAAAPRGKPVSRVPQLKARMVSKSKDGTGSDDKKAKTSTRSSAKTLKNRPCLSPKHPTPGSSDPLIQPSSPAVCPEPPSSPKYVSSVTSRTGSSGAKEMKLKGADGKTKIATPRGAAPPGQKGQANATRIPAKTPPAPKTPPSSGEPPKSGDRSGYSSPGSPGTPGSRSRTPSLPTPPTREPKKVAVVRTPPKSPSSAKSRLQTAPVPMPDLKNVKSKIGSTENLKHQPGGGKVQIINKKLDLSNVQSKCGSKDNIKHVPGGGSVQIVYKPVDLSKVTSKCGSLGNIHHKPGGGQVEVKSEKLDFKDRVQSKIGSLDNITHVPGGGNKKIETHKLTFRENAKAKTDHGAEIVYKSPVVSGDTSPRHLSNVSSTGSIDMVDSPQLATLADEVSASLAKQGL
Procedure, shortened: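 Recombinant human tau K18 fragment […] carrying P301L, 15 uM unlabeled plus 0.24 uM Alexa 594-labeled, was fibrillized with 20 uM heparin in 100 mM sodium acetate pH 7 for 6 hr at 37 C; 30 uM ThT fluorescence read after 1 hr.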
% is scaled to controls: 0 for no effect and ±100 for the full control effect; potency is read from the fitted curve at half-maximal effect; tags tell the direction and shape of the fitted curve.
Also: nearly all actives have a fitted effect of over 55% in size.

Row | Structure (SMILES) | activity, negative = inhibition | Potency
1 | COc1ccc(-c2noc(CN3CCN(c4ccccc4F)CC3)n2)cc1OC | inactive: -11.4% | 
2 | O=C1/C(=C/c2cccnc2)SC(=S)N1N1CCOCC1 |  | inconclusive: 20 µM [inhibitor, partial curve, poor fit]
3 | N#C/C(=C(/O)COC(=O)c1ccccc1O)c1nc2ccccc2s1 |  | inconclusive: 12.6 µM [inhibitor, partial curve]
4 | CCOc1ccc(N=C(NN)c2ccc3ccccc3n2)cc1 |  | active: 10 µM
5 | COc1cc(Cl)c(C)cc1Nc1nc2ccccc2nc1NS(=O)(=O)c1ccccc1 |  | inconclusive: 6.31 µM [inhibitor, partial curve]
6 | O=C1CCC/C1=C/Nc1ccc(Cl)cc1 | inactive: -13.4% | 
7 | O=[N+]([O-])c1cc(C(F)(F)F)cc([N+](=O)[O-])c1Sc1n[nH]c(C(F)(F)F)n1 |  | inconclusive: 5.01 µM [inhibitor, partial curve]
8 | O=S(=O)(c1ccc(-c2csc(=Nc3ccccc3)n2CCCN2CCOCC2)cc1)N1CCOCC1 |  | inconclusive: 31.6 µM [inhibitor, single point]
9 | O=C(c1cn[nH]c1)N1CCc2c([nH]c3ccccc23)C1c1c(F)cccc1Cl (stereo not drawn) |  | inconclusive: 12.6 µM [inhibitor, partial curve]
10 | O=C(C[n+]1cc(-c2ccccc2)n2c1CCC2)N1c2ccccc2Sc2ccccc21 | inactive: 0.978% | 
11 | Cc1occc1-c1nnc(SCC(=O)c2c[nH]c3ccccc23)n1C |  | inconclusive: 31.6 µM [inhibitor, single point]
12 | COc1cc(/C=N/Nc2ccccc2[N+](=O)[O-])ccc1OC(=O)c1ccccc1F |  | inconclusive: 2.51 µM [inhibitor, partial curve]
13 | O=C(/C=C/c1ccco1)NC(=S)Nc1cccc(-c2nc3ccccc3o2)c1 |  | inconclusive: 11.2 µM [inhibitor, partial curve]
14 | COc1ccc(N=Cc2nc(-c3ccccc3)oc2OC(=O)c2ccccc2)cc1 |  | inconclusive: 25.1 µM [inhibitor, single point]
15 | N#Cc1nc(COc2ccccc2)oc1N1CCC(Cc2ccccc2)CC1 | inactive: -6.28% | 
16 | Cc1ccc(-c2nnc(NC(=O)c3ccc4c(c3)OCCO4)o2)c(C)c1 |  | inconclusive: 0.355 µM [inhibitor, full curve]
17 | COc1cccc(-c2cc(C(=O)Nc3ccc(OC)c(OC)c3)no2)c1 |  | inconclusive: 0.891 µM [inhibitor, full curve]
18 | CN(C)c1ccc(C(=O)OCC(=O)Nc2ccc(N3CCOCC3)cc2)cc1 | inactive: -6.29% | 
19 | COC(=O)C1=C(C)OC(N)=C(C#N)C1c1cc(OC)c(OCC(N)=O)cc1Cl (stereo not drawn) |  | inconclusive: 20 µM [inhibitor, single point]
20 | C=CCNC(=O)/C(C#N)=C/c1c(C)nn(-c2ccc(Cl)cc2)c1Cl |  | inconclusive: 12.6 µM [inhibitor, partial curve]
21 | O=C(NCc1ccco1)C1CCN(C(=O)N2CCOc3ccc(Cl)cc32)CC1 |  | active: 20 µM
22 | CN(C)CCN=c1cc(-c2ccccc2)oc2ccc(Cl)cc12 |  | inconclusive: 20 µM [inhibitor, partial curve]

Row | Structure (SMILES) | activity, negative = inhibition | Potency
23 | CCCc1nc(SCC(=O)c2ccccc2)c2c(=O)n(C)c(=O)n(C)c2n1 |  | inconclusive: 17.8 µM [inhibitor, single point]
24 | CCN(CC)S(=O)(=O)c1cc(NC(=O)COC(=O)CCC(=O)c2cccs2)ccc1C | inactive: -11% | 
25 | O=C(CSc1nc2ccccc2s1)NCc1ccc2c(c1)OCO2 |  | inconclusive: 39.8 µM [inhibitor, single point]
26 | Cc1cc(C)c(S(=O)(=O)OC[C@H]2C=CC[C@@H](CCC[C@H]3O[C@H](C(=O)OC(C)C)CC[C@@H]3C)O2)c(C)c1 | inactive: 0.666% | 
27 | CC(=O)c1ccc(NC(=S)NNC(=O)c2ccccc2[N+](=O)[O-])cc1 |  | inconclusive: 15.8 µM [inhibitor, partial curve]
28 | CC(=O)c1cccc(NC(=O)CSc2nnc3ccc(-c4ccc(C)cc4)nn23)c1 | inactive: 2.06% | 
29 | CCN(c1ncnc2c1cnn2-c1cc(Cl)ccc1C)C1CCCCC1 | inactive: -3.62% | 
30 | Cc1ccc(N2CCN(CCc3nc4cc(NC(=O)c5ccco5)ccc4n3C)CC2)cc1 |  | inconclusive: 15.8 µM [inhibitor, partial curve]
31 | CCOC(=O)c1cnc2c(C)cccc2c1NCCc1ccc(OC)c(OC)c1 |  | inconclusive: 25.1 µM [inhibitor, partial curve] and inconclusive: 35.5 µM [inhibitor, single point]
32 | O=C(O)c1cc(Cl)c2c(c1)[C@@H]1C=CC[C@@H]1[C@H](c1ccc(S(=O)(=O)N3CCOCC3)cc1)N2 | inactive: 10.6% | 
33 | Cc1c(N=NC2=C(O)CCCC2=O)c(=O)n(-c2ccccc2)n1C |  | active: 14.1 µM
34 | COc1cccc(CNC(=O)CN2C(=O)CCCc3ccccc32)c1OC | inactive: -7.47% | 
35 | CCNCc1cc2cc(C)ccc2[nH]c1=O |  | inconclusive: 10 µM [inhibitor, partial curve]
36 | CCOc1ccc(OCC)c(NC(=O)C(NS(=O)(=O)c2ccc(Br)s2)c2ccccc2)c1 (stereo not drawn) | inactive: 5.14% | 
37 | COc1ccc(C(=O)N2CCN(c3ncnc4c(-c5ccccc5)nsc34)CC2)cc1 |  | inconclusive: 6.31 µM [inhibitor, partial curve]
38 | Cc1ccc(C(=O)/C=C/Nc2ccccc2C(N)=O)cc1 | inactive: -12.1% | 
39 | O=C(O)c1ccc(-n2cc(-c3cc4ccccc4oc3=O)[nH]c2=S)cc1 |  | inconclusive: 25.1 µM [inhibitor, partial curve]
40 | Cc1cc(Cl)c(S(=O)(=O)N2CCN(c3ccc(F)cc3)CC2)cc1OCC(=O)NC1CCCCC1 | inactive: -18.2% | 
41 | COc1ccc2[nH]c(=O)c(CN(CCCN(C)C)C(=O)Nc3ccccc3)cc2c1 |  | inconclusive: 44.7 µM [activator, single point]
42 | CC(=O)c1sc(N/N=C2\CC3CC2C(C)C3(C)C)nc1C (stereo not drawn) |  | inconclusive: 39.8 µM [inhibitor, single point]
43 | COCCCN(C(=S)NC(=O)C(C)(C)C)c1c(N)n(Cc2ccccc2)c(=O)[nH]c1=O |  | inconclusive: 44.7 µM [inhibitor, single point]

Reference: PubChem BioAssay AID1460 (National Center for Advancing Translational Sciences (NCATS), 2008)
